# Results reported in PubChem BioAssay AID2100 (National Center for Advancing Translational Sciences (NCATS), 2009).
# Among all 300,000 compounds or so, about 1,200 (0.4%) were called active. Inconclusive means that the source gave no clear call. Such entries were picked first, then a sample of the others. Calls follow the shape of the dose curve; as a rule, active = well fitted inhibition curve with a large enough effect; inconclusive = small, poorly fitted or top-dose-only effect, or another doubt; inactive = no such curve, though single readings can be large or run the other way. Potencies of inconclusive entries are doubtful fits and often do not repeat.
# Molecular target: Lysosomal alpha-glucosidase (Homo sapiens) (UniProt P10253)
# Assay: qHTS Assay for Inhibitors and Activators of Human alpha-Glucosidase Cleavage of Glycogen;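 as to activity change, negative = inhibition: 0% = full enzyme reaction and -100% = no-enzyme basal signal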
# Settings: recombinant GAA, glycogen substrate, Amplex Red glucose oxidase fluorescence; activity change, negative = inhibition: at 76.4 µM (top of the series) unless noted
# Procedure, shortened: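 Recombinant enzyme (4 nM final) with compounds titrated up to 77 uM and bovine liver glycogen (30 ug) in citrate pH 5.0, 0.01% Tween-20, 37 C 40 min. Released glucose detected by Amplex Red/glucose oxidase (Ex 573/Em 610); AC50 from Hill fits.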
# Potency is read from the fitted curve at half-maximal effect.
SMILES,Potency,"activity change, negative = inhibition"
Cc1ccc(-c2ccc(NC(=O)C3C4C=CC(C4)C3C(=O)O)cc2)o1 (stereo unspecified),active: 39.8 µM,
CC(=O)Nc1cccc(NC(=O)CSc2nnc(Cc3cccn3C)n2-c2ccc(F)cc2)c1,"inconclusive: 79.4 µM [inhibitor, single point]",
COc1ccc(/C=N/Nc2nc3ccccc3[nH]2)c(OC)c1OC,"inconclusive: 50.1 µM [inhibitor, single point]",
O=c1c(=Nc2ccccc2O)c(=O)c2ccccc12,active: 8.91 µM,
COc1cc(CN2CCN(S(=O)(=O)c3ccccc3)CC2)cc(OC)c1O,"inconclusive: 7.94 µM [inhibitor, full curve]",
COC(=O)C/C=N/N=C1/NC(=O)/C(=C/C(=O)O)S1,"inconclusive: 11.2 µM [inhibitor, partial curve]",
CC1CCN(c2ccc(/C=N\Nc3nncn3N)cc2[N+](=O)[O-])CC1,"inconclusive: 28.2 µM [inhibitor, single point]",
CCOC(=O)CCSc1nc(-c2ccc3c(c2)OCO3)cc(C(F)(F)F)c1C#N,,inconclusive: 43.4% [activator]
C/C(=N/Nc1ccc([N+](=O)[O-])cc1)c1ccc(C)cc1C,"inconclusive: 35.5 µM [inhibitor, single point]",
CCNC(=O)CC1C(=O)N(c2cccc(OC)c2)C(=O)N1Cc1ccc(OC)c(OC)c1 (stereo unspecified),,inactive: 3.18% [at 76.3 µM]
O=C1CCCC2=C1C(c1ccc(O)c(O)c1)c1c(ccc3ncccc13)N2 (stereo unspecified),"inconclusive: 7.08 µM [inhibitor, partial curve]",
Cc1nn(Cc2c(Cl)cccc2Cl)c(C)c1N,"inconclusive: 15.8 µM [inhibitor, partial curve]",
COC(=O)CCCCCNc1ccc(C(=O)OC)cc1N,active: 22.4 µM,
Cc1cc(Cl)ccc1NC(=O)Cn1cncn1,,inactive: 7.43%
CC(=O)Nc1sc(/C(C#N)=C/c2ccc(Cl)c(Cl)c2)nc1-c1ccc(C)cc1,,inactive: 1.62%
CCCC/C(C)=N/NC(=O)Nc1ccccc1,"inconclusive: 3.98 µM [inhibitor, single point]",
COc1ccccc1NS(=O)(=O)c1ccc(O)c(NC(=S)NCC2CCCO2)c1 (stereo unspecified),"inconclusive: 39.8 µM [inhibitor, partial curve]",
Cc1c(NC(=O)c2cccc3c(Cl)cccc23)cccc1-c1nc2ccccc2o1,,inactive: -8.99% [at 76.3 µM]
COc1cc(OC)c(OC)cc1/C=N/NC(=S)NCCN1CCOCC1,"inconclusive: 39.8 µM [inhibitor, partial curve]",
Cc1cc(Nc2ccccc2)n(-c2ccc(C(=O)O)cc2)n1,"inconclusive: 12.6 µM [inhibitor, partial curve]",
Cc1c(N=Cc2ccncc2)c(=O)n(-c2ccccc2)n1C,active: 12.5 µM,
O=C(Nc1ccc(Nc2ccccc2)cc1)Nc1ccccc1Cl,"inconclusive: 50.1 µM [inhibitor, single point]",
Cc1ccc(C=Nc2cccnc2N)cc1,"inconclusive: 15.8 µM [activator, partial curve]",
COc1cccc(-n2c(C)c3c(OC)cccc(=O)c3c2C)c1,"inconclusive: 39.5 µM [activator, single point]",

SMILES,Potency,"activity change, negative = inhibition"
Cc1cc(O)c(/C=N/Nc2cccc(Cl)c2)c(=O)o1,"inconclusive: 22.2 µM [inhibitor, partial curve]",
Cc1ccc2cc(N)ccc2n1,,inactive: 22%
CCCCc1nc2n[nH]c(N)c2c2c1CCCC2,"inconclusive: 17.8 µM [inhibitor, partial curve]",
CCOC(=O)c1c(C)[nH]c(C)c1S(=O)(=O)NCCc1ccco1,,inactive: -3.26% [at 76.3 µM]
COc1ccc(Cl)cc1NC(=S)NNC(=O)CC(C)C,"inconclusive: 15.8 µM [inhibitor, partial curve]",
Cc1cccc(NC(c2ccc(O)cc2)c2ccc3ccc(C)nc3c2O)n1 (stereo unspecified),"inconclusive: 14.1 µM [inhibitor, partial curve]",
CCCOc1ccc(N2C(=O)CC(N(O)c3ccccc3)C2=O)cc1 (stereo unspecified),"inconclusive: 12.5 µM [inhibitor, partial curve]",
O=C1c2ccccc2NC(c2cccc([N+](=O)[O-])c2)N1O (stereo unspecified),"inconclusive: 12.5 µM [inhibitor, partial curve]",
CN1C(=O)SC(Nc2cccc3ccccc23)C1=O (stereo unspecified),"inconclusive: 22.2 µM [inhibitor, partial curve]",
CCOC(=O)CC(=O)CSc1ncnc2c1nnn2-c1ccc(F)cc1,"inconclusive: 12.6 µM [inhibitor, partial curve]",
Cc1cc(=O)[nH]c(NN=C2C3CC4CC(C3)CC2C4)n1,"inconclusive: 35.5 µM [inhibitor, single point]",
Cc1cc(=O)oc2c3c4c(cc12)OCCN4CCC3,"inconclusive: 24.9 µM [activator, single point]",
Cc1ccc(-c2noc(CCCC(=O)NCc3ccco3)n2)cc1,"inconclusive: 44.7 µM [inhibitor, partial curve]",
Cc1ccc2c(CN3CCCCC3)cc(=O)oc2c1C,,inactive: -0.664%
OCC(O)/C=N/Nc1nc(N2CCCCC2)nc(N2CCCCC2)n1 (stereo unspecified),"inconclusive: 1.76 µM [inhibitor, full curve]",
CCOC(=O)Cc1csc(NC(=O)Cc2ccc(Cl)cc2)n1,,inactive: -3.22%
CCOc1ccc(-c2nc(SCC(=O)NC3CCCC3)c(-c3ccccc3)[nH]2)cc1OC,,inactive: -5.51% [at 76.3 µM]
O=C(CSCc1ccc(Cl)cc1)Nc1ccccc1O,"inconclusive: 39.8 µM [inhibitor, partial curve]",
C=CCc1c(C)nc(C)nc1N/N=C/c1ccc(F)cc1,"inconclusive: 28.2 µM [inhibitor, single point]",
Cc1cc(Br)ccc1NC(=O)c1ccc(NS(=O)(=O)c2c(C)noc2C)cc1,,inactive: -21.2% [at 76.3 µM]
Cc1ccc2[nH]c3c(c2c1)CN(C(=O)CN(C)CC1OCCO1)CC3,"inconclusive: 19.8 µM [inhibitor, partial curve]",
COc1ccc(N2C(=O)/C(=C/N(C)C)NC2=S)cc1,"inconclusive: 15.8 µM [inhibitor, partial curve]",
CCOc1ccc2nc(NC(=O)c3nc(SC)ncc3Cl)sc2c1,"inconclusive: 6.31 µM [inhibitor, full curve, poor fit]",
CC(/C=C/C1(O)C(C)CC(=O)CC1(C)C)OC1OC(CO)C(O)C(O)C1O (stereo unspecified),"inconclusive: 50.1 µM [inhibitor, single point]",

SMILES,Potency,"activity change, negative = inhibition"
COc1ccc(/C=N/Nc2nc3ccccc3[nH]2)cc1OC,"inconclusive: 35.5 µM [inhibitor, single point]",
Brc1ccc(-c2ccc(/C=N/Nc3nc4ccccc4[nH]3)o2)cc1,"inconclusive: 12.6 µM [inhibitor, partial curve]",
CC(=O)N(Cc1c(C#N)c2ccccc2n1C)c1ccccc1,"inconclusive: 50.1 µM [inhibitor, single point]",
CN(C)c1ccc(C2Nc3ccccc3C(=O)N2CCCN2CCOCC2)cc1 (stereo unspecified),"inconclusive: 3.55 µM [inhibitor, full curve]",
Oc1ccc(/C=C/c2cc(O)cc(O)c2)cc1,"inconclusive: 39.5 µM [inhibitor, single point]",
CCN(Cc1ccccc1)S(=O)(=O)c1ccc2c(c1)CC(C)N2C(=O)C1CCC1 (stereo unspecified),,inactive: -10.9% [at 76.3 µM]
Cc1ccc(CNc2ccc(N3CCOCC3)c(C(=O)O)c2)s1,"inconclusive: 11.2 µM [inhibitor, partial curve]",
Cc1nn(Cc2ccccc2Cl)c(C)c1N,"inconclusive: 12.5 µM [inhibitor, partial curve]",
CCCCN(CC)CCCNC(=O)Nc1sc2nc3n(c(=O)c2c1C)CCC(C)CC3 (stereo unspecified),active: 10 µM,
CNc1oc(-c2ccco2)nc1C#N,"inconclusive: 24.9 µM [inhibitor, partial curve]",
N#Cc1ccc(NCCc2ccccn2)c([N+](=O)[O-])c1,,inactive: 1.98%
COc1ccc(N=C2O/C(=C/c3sc(=S)n(CC4CCCO4)c3O)N=C2C#N)cc1 (stereo unspecified),"inconclusive: 31.6 µM [inhibitor, partial curve]",
CCC(C)(C)C1CCC(NC(=O)N2CCN(c3ccccc3O)CC2)CC1 (stereo unspecified),"inconclusive: 12.6 µM [inhibitor, partial curve, poor fit]",
Cc1ccc(CN2CCN(/N=C/c3ccc(C(=O)O)cc3)CC2)c(C)c1,"inconclusive: 28.2 µM [inhibitor, single point]",
COC(=O)c1[nH]c(=O)c2ccccc2c1O,"inconclusive: 39.5 µM [inhibitor, single point]",
Cc1ccc(Nc2c(-c3ccco3)nc3ccccn23)cc1,"inconclusive: 17.8 µM [inhibitor, partial curve]",
CCOc1ccc(NCc2cccn2-c2nnc(N3CCC(C(=O)NCCOC)CC3)s2)cc1,"inconclusive: 20 µM [inhibitor, partial curve]",
COc1ccccc1/C=C/c1nc(C#N)c(NCCc2ccccc2)o1,"inconclusive: 31.6 µM [inhibitor, single point]",
O=C(O)CC(NC(=O)Cc1ccc(Cl)cc1)c1ccco1 (stereo unspecified),"inconclusive: 398 µM [inhibitor, partial curve]",
Cc1cc(NS(=O)(=O)c2ccccc2)cc(Cl)c1O,active: 20 µM,
O=C1c2ccccc2NC(c2cn[nH]c2-c2ccc(Cl)cc2)N1O (stereo unspecified),"inconclusive: 4.43 µM [inhibitor, single point]",
O=C(CN1CCN(c2ccccc2F)CC1)c1ccc(O)c(O)c1,"inconclusive: 6.31 µM [inhibitor, partial curve]",
CN(C)N1C(N)=C(C#N)C(c2ccccc2F)C2=C1CC(C)(C)CC2=O (stereo unspecified),"inconclusive: 14 µM [inhibitor, partial curve]",
